Assay results from patent US9777070B2, “Anti-PTK7 antibody-drug conjugates” (Pfizer Inc., priority 2014, dated 2017).

Tests used:
[1] = target: T1, PTK7 on OE19 and OE21 cells (Homo sapiens, UniProt Q13308); assay: Flow cytometry staining of esophageal cancer cell lines with hu24; format: binding; conditions: OE21 cells; 5 μg/mL; versus isotype control
T1 construct: cancer cell lines with endogenous expression of PTK7; endogenous in cells; host or cells: cultured cancer cell lines (e.g. H661, H446, U2OS, H520, H1048, OE19, OE21, H1975, EKVX)
T1 sequence (Q13308 31-1070): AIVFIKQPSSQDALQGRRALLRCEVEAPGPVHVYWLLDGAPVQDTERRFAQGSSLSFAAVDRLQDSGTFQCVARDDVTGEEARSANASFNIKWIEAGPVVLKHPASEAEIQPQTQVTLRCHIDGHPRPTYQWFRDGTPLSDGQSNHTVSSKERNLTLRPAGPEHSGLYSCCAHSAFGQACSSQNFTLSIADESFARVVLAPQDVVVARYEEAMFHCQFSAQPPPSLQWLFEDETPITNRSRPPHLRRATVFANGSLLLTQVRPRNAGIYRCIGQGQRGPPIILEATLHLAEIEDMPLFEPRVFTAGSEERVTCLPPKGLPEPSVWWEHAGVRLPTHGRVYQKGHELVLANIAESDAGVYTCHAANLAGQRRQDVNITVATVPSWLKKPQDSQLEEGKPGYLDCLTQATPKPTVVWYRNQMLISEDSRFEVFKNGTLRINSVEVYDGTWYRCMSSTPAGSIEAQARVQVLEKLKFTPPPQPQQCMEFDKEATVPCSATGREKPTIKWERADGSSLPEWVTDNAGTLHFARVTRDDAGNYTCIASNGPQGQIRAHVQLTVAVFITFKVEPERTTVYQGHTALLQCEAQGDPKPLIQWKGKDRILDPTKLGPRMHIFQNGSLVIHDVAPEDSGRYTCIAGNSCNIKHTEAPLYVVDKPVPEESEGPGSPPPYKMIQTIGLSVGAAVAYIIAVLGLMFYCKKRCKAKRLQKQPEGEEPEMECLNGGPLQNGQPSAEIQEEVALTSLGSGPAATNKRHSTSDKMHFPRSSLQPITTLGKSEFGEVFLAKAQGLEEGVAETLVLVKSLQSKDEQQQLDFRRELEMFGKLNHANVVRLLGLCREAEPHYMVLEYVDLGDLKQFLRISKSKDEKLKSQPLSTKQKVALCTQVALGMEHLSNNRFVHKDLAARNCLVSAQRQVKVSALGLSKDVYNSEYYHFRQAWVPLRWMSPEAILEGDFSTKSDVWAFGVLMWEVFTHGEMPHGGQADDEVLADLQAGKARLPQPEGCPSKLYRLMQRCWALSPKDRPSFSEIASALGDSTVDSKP
Procedure: In another experiment, the saporin assay was performed on two cell lines derived from esophageal cancers, OE19 and OE21 (Sigma Aldrich). To determine PTK7 expression on the cell lines, the cells were cultured and single cell suspensions were isolated using Versene (Invitrogen). […] Cells were washed again in PBS/2% FCS, then incubated at 1:200 with anti-human Alexa Fluor647 (Jackson Immunoresearch) for 20 minutes. Cells were washed again, resuspended in DAPI, and then analyzed on a BD FACSCanto to determine the change in mean fluorescence intensity (ΔMFI).

[2] = test system: small cell lung cancer-64 (LU64) PDX; assay: In vivo efficacy, PDX tumor growth; design: species or system human tumor in NOD/SCID mice
From the text: (§1) The effects of anti-PTK7 antibody-drug conjugates were further evaluated on the in vivo growth of human tumor patient-derived xenografts (PDX). Primary tumor resection samples were procured from clinical sites following Institutional Review Board for the Protection of Human Subjects approval and in accordance with HIPAA regulations. Tumor fragments were stored and shipped in Hypothermasol (Biolife Solutions) on ice and were embedded in Matrigel (BD) containing a proprietary mix of growth factors and implanted subcutaneously into the mammary fatpad of female NOD/SCID mice within 24 hours of resection. Mice were monitored for health status daily and for tumor growth initially by visual inspection twice per week. Once the tumors were palpable, measurements of tumor volume began to track tumor growth and estimate cell doubling time. Tumor volume was estimated using the equation V=(A*B^2)/2 where A is the long axis and B is the short axis. When tumors reached a volume of 500 mm^3 to 1,500 mm^3, they were harvested for study and for re-transplant as a patient-derived xenograft (PDX). Depending on the line, mechanical and/or chemical dissociation can be used to separate the individual cells for passage. Live cells were inoculated into naïve animals with 10,000 to 50,000 cells per animals
(§2) For efficacy studies, tumors were harvested from passaging studies and cells were dissociated into single cell suspension. Preparations were counted for live cells using Trypan blue exclusion and 10,000 to 50,000 cells were inoculated per mouse in Matrigel. […] Tumor growth was initially followed by palpability with measurements beginning once tumor volumes reached about 30 mm^3. Studies were randomized based on tumor size once a cohort of tumor-bearing mice reached 140 mm^3 to 180 mm^3. Animals were dosed by intraperitoneal injection twice a week for two weeks (q4dx4). Study groups were followed until individual mice or entire group tumor measurements reached 1200 mm^3 when sacrifice was indicated in accordance with IACUC protocol. For selected dosing studies, pharmacokinetic submandibular bleeds were performed at 2 hours, 36 hours and 72 hours. A volume of 10 μL of blood was immediately pipetted into 90 μL of HBS-P (GE Healthcare). Samples were stored at −80° C. prior to analysis. For each tumor measurement the tumor volume±standard error of the mean (SEM) is provided. GT=Group Terminated due to large tumor size.

[3] = test system: small cell lung cancer-86 (LU86) PDX; assay: In vivo efficacy, PDX tumor growth; design: species or system human tumor in NOD/SCID mice
From the text: as §1, §2

B1: hu24 (antibody)
heavy: QVQLVQSGPEVKKPGASVKVSCKASGYTFTDYAVHWVRQAPGKRLEWIGVISTYNDYTYNNQDFKGRVTMTRDTSASTAYMELSRLRSEDTAVYYCARGNSYFYALDYWGQGTSVTVSS[letters of human IgG1 constant region omitted]
light: EIVLTQSPATLSLSPGERATLSCRASESVDSYGKSFMHWYQQKPGQAPRLLIYRASNLESGIPARFSGSGSGTDFTLTISSLEPEDFAVYYCQQSNEDPWTFGGGTKLEIKRTVAAPSVFIFPPSDEQLKSGTASVVCLLNNFYPREAKVQWKVDNALQSGNSQESVTEQDSKDSTYSLSSTLTLSKADYEKHKVYACEVTHQGLSSPVTKSFNRGEC
**Q.** Which “change in mean fluorescence intensity (ΔMFI)” value [1] does the source give for B1 here?
**A.** Its value is 5976.

B2: hu24-vc0101: hu24 conjugated through cysteines to vc0101 linker-payload; average DAR approximately 4 (conjugate)
heavy: B1 heavy
light: B1 light
**Q.** How did the “tumor volume ± SEM” value ([2]; 3 mg/kg, Day 0) turn out when B2 was run?
**A.** The value was 166 ± 15 mm^3.

**Q.** And the “tumor volume ± SEM” value ([2]; 3 mg/kg, Day 7)?
**A.** The value was 252 ± 11 mm^3.

**Q.** What about the “tumor volume ± SEM” value ([2]; 3 mg/kg, Day 14) of the same molecule?
**A.** The value was 310 ± 38 mm^3.

**Q.** What about the “tumor volume ± SEM” value ([2]; 3 mg/kg, Day 21) of the same molecule?
**A.** Its value is 389 ± 35 mm^3.

**Q.** What about the “tumor volume ± SEM” value ([2]; 3 mg/kg, Day 28) of the same molecule?
**A.** The value was 537 ± 67 mm^3.

**Q.** What about the “tumor volume ± SEM” value ([2]; 3 mg/kg, Day 35) of the same molecule?
**A.** The value was 651 ± 70 mm^3.

**Q.** And the “tumor volume ± SEM” value ([2]; 3 mg/kg, Day 42)?
**A.** Its value is 932 ± 128 mm^3.

**Q.** What about the “tumor volume ± SEM” value ([2]; 10 mg/kg, Day 0, Table 27) of the same molecule?
**A.** The value was 178 ± 19 mm^3.

**Q.** What about the “tumor volume ± SEM” value ([2]; 10 mg/kg, Day 7, Table 27) of the same molecule?
**A.** The value was 348 ± 32 mm^3.

**Q.** And the “tumor volume ± SEM” value ([2]; 10 mg/kg, Day 14, Table 27)?
**A.** Its value is 391 ± 42 mm^3.

**Q.** And the “tumor volume ± SEM” value ([2]; 10 mg/kg, Day 21, Table 27)?
**A.** Its value is 377 ± 66 mm^3.

**Q.** What about the “tumor volume ± SEM” value ([2]; 10 mg/kg, Day 28, Table 27) of the same molecule?
**A.** Its value is 500 ± 76 mm^3.

**Q.** What about the “tumor volume ± SEM” value ([2]; 10 mg/kg, Day 35, Table 27) of the same molecule?
**A.** Its value is 618 ± 113 mm^3.

**Q.** What about the “tumor volume ± SEM” value ([2]; 10 mg/kg, Day 42, Table 27) of the same molecule?
**A.** Its value is 773 ± 141 mm^3.

**Q.** What about the “tumor volume ± SEM” value ([2]; 10 mg/kg, Day 49, Table 27) of the same molecule?
**A.** Its value is 838 ± 171 mm^3.

**Q.** What about the “tumor volume ± SEM” value ([2]; 10 mg/kg, Day 56, Table 27) of the same molecule?
**A.** The value was 1054 ± 185 mm^3.

**Q.** What about the “tumor volume ± SEM” value ([2]; 10 mg/kg, Day 63, Table 27) of the same molecule?
**A.** Its value is 1367 ± 290 mm^3.

**Q.** And the “tumor volume ± SEM” value ([3]; 0.3 mg/kg, Day 0, Table 30)?
**A.** Its value is 145 ± 11 mm^3.

**Q.** What about the “tumor volume ± SEM” value ([3]; 0.3 mg/kg, Day 7, Table 30) of the same molecule?
**A.** Its value is 362 ± 39 mm^3.

**Q.** What about the “tumor volume ± SEM” value ([3]; 0.3 mg/kg, Day 14, Table 30) of the same molecule?
**A.** Its value is 758 ± 62 mm^3.

**Q.** And the “tumor volume ± SEM” value ([3]; 0.3 mg/kg, Day 21, Table 30)?
**A.** Its value is 1441 ± 97 mm^3.

**Q.** And the “tumor volume ± SEM” value ([3]; 1 mg/kg, Day 0)?
**A.** The value was 143 ± 12 mm^3.

**Q.** And the “tumor volume ± SEM” value ([3]; 1 mg/kg, Day 7)?
**A.** The value was 282 ± 46 mm^3.

**Q.** What about the “tumor volume ± SEM” value ([3]; 1 mg/kg, Day 14) of the same molecule?
**A.** The value was 363 ± 77 mm^3.

**Q.** What about the “tumor volume ± SEM” value ([3]; 1 mg/kg, Day 21) of the same molecule?
**A.** The value was 420 ± 115 mm^3.

**Q.** What about the “tumor volume ± SEM” value ([3]; 1 mg/kg, Day 28) of the same molecule?
**A.** The value was 621 ± 159 mm^3.

**Q.** What about the “tumor volume ± SEM” value ([3]; 1 mg/kg, Day 35) of the same molecule?
**A.** The value was 784 ± 141 mm^3.

**Q.** What about the “tumor volume ± SEM” value ([3]; 1 mg/kg, Day 42) of the same molecule?
**A.** Its value is 915 ± 105 mm^3.

**Q.** And the “tumor volume ± SEM” value ([3]; 3 mg/kg, Day 0)?
**A.** The value was 141 ± 11 mm^3.

**Q.** And the “tumor volume ± SEM” value ([3]; 3 mg/kg, Day 7)?
**A.** The value was 194 ± 24 mm^3.

**Q.** And the “tumor volume ± SEM” value ([3]; 3 mg/kg, Day 14)?
**A.** The value was 56 ± 11 mm^3.

**Q.** What about the “tumor volume ± SEM” value ([3]; 3 mg/kg, Day 21) of the same molecule?
**A.** The value was 5 ± 4 mm^3.

**Q.** And the “tumor volume ± SEM” value ([3]; 3 mg/kg, Day 28)?
**A.** The value was 0 ± 0 mm^3.

**Q.** What about the “tumor volume ± SEM” value ([3]; 3 mg/kg, Day 35) of the same molecule?
**A.** Its value is 0 ± 0 mm^3.

**Q.** What about the “tumor volume ± SEM” value ([3]; 3 mg/kg, Day 42) of the same molecule?
**A.** Its value is 0 ± 0 mm^3.

**Q.** And the “tumor volume ± SEM” value ([3]; 3 mg/kg, Day 49)?
**A.** The value was 0 ± 0 mm^3.

**Q.** What about the “tumor volume ± SEM” value ([3]; 3 mg/kg, Day 56) of the same molecule?
**A.** Its value is 0 ± 0 mm^3.

**Q.** What about the “tumor volume ± SEM” value ([3]; 3 mg/kg, Day 63) of the same molecule?
**A.** The value was 17 ± 17 mm^3.

**Q.** And the “tumor volume ± SEM” value ([3]; 3 mg/kg, Day 70)?
**A.** Its value is 73 ± 45 mm^3.

**Q.** And the “tumor volume ± SEM” value ([3]; 3 mg/kg, Day 77)?
**A.** Its value is 121 ± 67 mm^3.

**Q.** What about the “tumor volume ± SEM” value ([3]; 3 mg/kg, Day 84) of the same molecule?
**A.** The value was 204 ± 90 mm^3.

**Q.** And the “tumor volume ± SEM” value ([3]; 3 mg/kg, Day 91)?
**A.** Its value is 477 ± 272 mm^3.

**Q.** And the “tumor volume ± SEM” value ([3]; 3 mg/kg, Day 98)?
**A.** The value was 570 ± 270 mm^3.

**Q.** What about the “tumor volume ± SEM” value ([3]; 3 mg/kg, Day 105) of the same molecule?
**A.** The value was 689 ± 281 mm^3.
